# The campaign covered roughly 420,000 compounds. About 64,000 (15%) were called active. The shares of active, inactive and inconclusive entries below differ from those in the screen. Calls come from the whole dose curve; as a rule, active = well fitted inhibition curve with a large enough effect; inconclusive = small, poorly fitted or top-dose-only effect; inactive = flat fitted curve, though single readings scatter. Potencies of inconclusive entries are left out as doubtful fits.
# Test: qHTS for Inhibitors of human tyrosyl-DNA phosphodiesterase 1 (TDP1): qHTS in cells in absence of CPT; note: nearly all actives have a fitted effect of over 55% in size
# Details: DT40 Tdp1-/- hTDP1 cells, no CPT, ATP luminescence, 48 h; activity change, negative = growth inhibition: at 46.2 µM (top of the series)
# Summary of the method: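 Growth of hTDP1-complemented DT40 Tdp1-knockout cells is measured by ATP luminescence after at least 48 hr compound exposure at 37 °C, with DMSO substituting for the 20 nM CPT used in the parallel screen.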
# % is set by controls: 0 for no effect and ±100 for the full control effect; potency is the fitted concentration of half-maximal effect; tags give direction and shape of the fitted curve.
SMILES,Potency,"activity change, negative = growth inhibition"
CC(=O)N1c2ccc(S(=O)(=O)NCCC(=O)Nc3ccc(C)cc3Br)cc2CC1C (configuration not stated),active: 9.2 µM,
Cc1cc(C)cc(NS(=O)(=O)c2ccc(F)cc2)c1,,inactive: -29.8%
COc1cccc(OC)c1OCC(=O)Nc1ccc(S(=O)(=O)N2CCCC2)cc1,"inconclusive [inhibitor, single point]",
CCC(C)NC(=O)C1CCC(=O)N1Cc1ccc(C)cc1 (configuration not stated),,inactive: 4.13%
CCOC(=O)C1CCN(S(=O)(=O)c2ccc3c(c2)NC(=O)C(C)S3)CC1 (configuration not stated),"inconclusive [inhibitor, single point]",
NC1=NC(=O)S/C1=C\c1ccc(O)cc1,"inconclusive [inhibitor, single point]",
CCCN(CCC)c1ncnc2c1cnn2-c1ccc(OC)cc1,"inconclusive [inhibitor, single point]",
O=C(Nc1c2c(nn1-c1ccc(Cl)cc1)CS(=O)(=O)C2)c1cccc(Cl)c1,active: 20.6 µM,
COc1ccc(NC(=O)c2ccc(N3C(=O)C4CC=C(C)CC4C3=O)cc2)c(OC)c1 (configuration not stated),,inactive: -27.9%
CCC(CO)NC(=O)c1cccc(S(=O)(=O)N2c3ccccc3CC2C)c1 (configuration not stated),"inconclusive [inhibitor, single point]",
CC1=C(C(=O)Nc2ccccc2)C(c2cccs2)n2nc(SCc3ccccc3)nc2N1 (configuration not stated),"inconclusive [inhibitor, full curve, poor fit]",
Cc1ccc(S(=O)(=O)NCCC(=O)OCc2ccc([N+](=O)[O-])cc2)cc1C,"inconclusive [inhibitor, single point]",
N#Cc1c2n(c3c(=O)n(CC(=O)c4ccc([N+](=O)[O-])cc4)cnc13)CCCCC2,"inconclusive [inhibitor, single point]",
CC(=O)C1=CCC(c2ccccc2F)N(S(=O)(=O)c2ccc(C)cc2)C1 (configuration not stated),"inconclusive [inhibitor, single point]",
CCn1c(SCC(=O)Nc2nc(-c3ccc(C)cc3)cs2)nnc1-c1ccccc1O,"inconclusive [inhibitor, single point]",
COc1ccc(OC)c(NC(=O)c2cc3cc4ccc(C)cc4nc3s2)c1,"inconclusive [inhibitor, partial curve, poor fit]",
COC(=O)C[C@H]1C[C@@H]2c3cc(NS(=O)(=O)c4cccc(OC)c4)ccc3O[C@@H]2[C@@H](CO)O1,"inconclusive [inhibitor, single point]",
C/C(Cn1nnc([N+](=O)[O-])n1)=N\NC(=O)c1cccc(Cl)c1,"inconclusive [inhibitor, single point]",
O=C(Nc1cc2c(cc1C(=O)O)OCCCO2)c1ccc(C(F)(F)F)cc1,"inconclusive [inhibitor, single point]",
CN1CCN(C2=Cc3ccccc3Sc3cc(F)c(F)cc32)CC1,"inconclusive [inhibitor, single point]",
Cc1ccc(N(C(=O)c2ccco2)C(C(=O)NC2CCCC2)c2ccco2)c(C)c1 (configuration not stated),"inconclusive [inhibitor, single point]",
O=C(N/N=C/c1cc(Br)cc(Br)c1O)c1cccc(N2CCCC2=O)c1,active: 1.46 µM,
O=C(/C=C/c1ccc2c(c1)OCO2)NCCSCc1ccc(Cl)cc1Cl,"inconclusive [inhibitor, single point]",

SMILES,Potency,"activity change, negative = growth inhibition"
O=C(CCN1C(=O)c2ccccc2C1=O)Nc1ccc(S(=O)(=O)NC2=NCCCCC2)cc1,,inactive: -1.52%
O=C(CCc1ccccc1)NNC(=O)c1ccccn1,"inconclusive [inhibitor, single point]",
CCOC(=O)c1cc(-c2ccccc2)nn1CC1CC(c2cccc([N+](=O)[O-])c2)=NO1 (configuration not stated),"inconclusive [inhibitor, single point]",
COc1ccccc1NC(=O)Cn1nc(C)n2cccc2c1=O,inactive,
Cc1ccc(Cn2c(C(=O)NCCCN3CCOCC3)cc3sccc32)cc1,"inconclusive [inhibitor, single point]",
O=C(CSc1nnnn1-c1ccc(O)cc1)c1ccc(F)cc1,"inconclusive [inhibitor, single point]",
CCOc1ccc(-c2cc(NC(=O)Nc3ccccc3C(F)(F)F)c(C(=O)OC)s2)cc1,"inconclusive [inhibitor, single point]",
COc1ccc(OC)c(C(=O)CSc2nc3c(c(=O)n(C)c(=O)n3C)n2C(C)C)c1,"inconclusive [inhibitor, full curve]",
CCNC(=S)NC(=NCc1cccnc1)Nc1nc(C)cc(C)n1,"inconclusive [inhibitor, single point]",
O=C(Nc1c(-c2ccccc2)[nH][nH]c1=O)c1cnccn1,,inactive: -1.03%
COc1ccc(N(Cc2ccccc2)S(=O)(=O)c2cccc(C(=O)O)c2)cc1,,inactive: 2.71%
Cc1ccc(S(=O)(=O)NCCC(=O)NCc2ccco2)cc1,,inactive: -18.4%
CC/C(=C\c1ccc(N(C)C)cc1)c1ccncc1,"inconclusive [inhibitor, single point]",
Cc1ccc2oc(=O)c3cnn(CC(=O)NC4CCCCC4C)c3c2c1 (configuration not stated),"inconclusive [inhibitor, single point]",
CCOC(=O)C1=C(COC(=O)c2cc(OC)c(OC)cc2[N+](=O)[O-])NC(=O)NC1C (configuration not stated),"inconclusive [inhibitor, single point]",
CC(/C=N/NC(=O)c1cc(C(C)(C)C)[nH]n1)=C\c1ccccc1,active: 23.1 µM,
C=COC(=O)NC1CCc2cc(OC)c(OC)c(OC)c2-c2ccc(SC)c(=O)cc21 (configuration not stated),active: 0.0164 µM,
O=C(NCCc1ccccc1)c1n[nH]c2ccccc12,,inactive: -22.9%
COC(=O)c1ccc(Cn2c(SCC(=O)Nc3ccc(F)cc3)nc3ccccc32)cc1,"inconclusive [inhibitor, single point]",
COc1cc2cc(C(=O)N(C)C3CCS(=O)(=O)C3)[nH]c2cc1OC (configuration not stated),,inactive: 15.8%
CC(Cc1c[nH]c2ccccc12)NC(=O)OCCCl (configuration not stated),"inconclusive [inhibitor, partial curve, poor fit]",
Cc1noc(C)c1CN1C(=O)NC2(CCc3ccccc3C2)C1=O (configuration not stated),,inactive: -20.1%
CC[C@@]1(C(=O)OC)N[C@H](CN(C)S(=O)(=O)c2ccc(C(C)(C)C)cc2)[C@@H]2C(=O)N(C)C(=O)[C@@H]21,"inconclusive [inhibitor, single point]",

SMILES,Potency,"activity change, negative = growth inhibition"
CCOC(=O)c1sc(C)c2c(=O)n(CC(=O)c3ccc(Br)cc3)nnc12,,inconclusive: -36.6% [inhibitor]
CCOC(=O)C1CCCN(C(=O)c2cc(-c3cccs3)oc2C)CC1 (configuration not stated),"inconclusive [inhibitor, single point]",
C=CCn1c(C)cc(C(=O)CSc2nc(N)cc(N)n2)c1C,"inconclusive [inhibitor, single point]",
O=C(OC(C(=O)NC1CCCCC1)c1ccc(C(F)(F)F)cc1)c1ccco1 (configuration not stated),"inconclusive [inhibitor, single point]",
O=C(CCC1CCCN(C(=O)c2ccco2)C1)NCc1ccccc1F (configuration not stated),"inconclusive [inhibitor, single point]",
CCCCN(CC)Cc1ccc(CNS(=O)(=O)c2cc3c(cc2Cl)NC(=O)CO3)o1,"inconclusive [inhibitor, partial curve]",
CCN1C(=O)[C@H]2[C@@H](c3ccc(C)cc3)N3C(=O)N(c4cccc(Br)c4)C(=O)[C@@]3(C)[C@H]2C1=O,"inconclusive [inhibitor, single point]",
CCCCOc1ccc(N(CC(=O)NCc2ccccc2)C(=O)c2csnn2)cc1,active: 16.4 µM,
CN(CC(=O)Nc1ccccc1F)Cc1cccs1,"inconclusive [inhibitor, single point]",
O=C(O)CSc1c2c(nc3cc(C(=O)NCCN4CCOCC4)ccc13)CCC2,,inconclusive: -34.3% [inhibitor]
CN(C)CCN(C)Cc1c2ccccc2c(CN(C)CCN(C)C)c2ccccc12,active: 18.4 µM,
CC(=O)N(C1CC(C)C(C#N)(C#N)C1(C#N)C#N)N(C)C (configuration not stated),active: 0.58 µM,
Cc1ccc([N+](=O)[O-])cc1NC(=S)NC(=O)CC(C)(C)C,,inactive: -16%
COc1ccc(NC(=O)N(C)C[C@H]2Oc3c(NC(=O)NC4CCCCC4)cccc3C(=O)N([C@H](C)CO)C[C@@H]2C)cc1,,inconclusive: -31% [inhibitor]
CCCCOc1ccc(C(=O)Nc2ccc3c(c2)CCCN3S(=O)(=O)c2ccc(C)cc2)cc1,"inconclusive [inhibitor, full curve]",
CC(=O)Nc1ccc(C(=O)OCc2ccccc2Br)cc1,"inconclusive [inhibitor, single point]",
COc1ccc(CCNS(=O)(=O)CCNC(=O)c2ccc3c(c2)OCO3)cc1,"inconclusive [inhibitor, single point]",
Nc1nc(SCC(=O)Nc2cc(Cl)ccc2Cl)n[nH]1,"inconclusive [inhibitor, single point]",
COc1ccc(S(=O)(=O)NNC(=O)c2csc(-n3nc(C)cc3C(F)(F)F)n2)cc1OC,"inconclusive [inhibitor, single point]",
Cc1nc(NCCc2ccccc2)c2oc3ccccc3c2n1,active: 9.2 µM,
Cc1ccc(C(=O)CSc2nc(-c3ccccc3)ccc2C#N)cc1,"inconclusive [inhibitor, single point]",

# From PubChem BioAssay AID686978 (National Center for Advancing Translational Sciences (NCATS), 2013)
